Each structure is given as a SMILES string. Hit rate of the full screen: of about 310,000 compounds, about 2,200 (0.71%) showed an effect of 50% or more. The effect is printed as a negative number. The list shows a part of the results.

The source of these data is article PMC4336329 (PLoS ONE, 2015).

Sequence of human ether-à-go-go-related gene (hERG) potassium channel (Q12809 whole entry, looked up): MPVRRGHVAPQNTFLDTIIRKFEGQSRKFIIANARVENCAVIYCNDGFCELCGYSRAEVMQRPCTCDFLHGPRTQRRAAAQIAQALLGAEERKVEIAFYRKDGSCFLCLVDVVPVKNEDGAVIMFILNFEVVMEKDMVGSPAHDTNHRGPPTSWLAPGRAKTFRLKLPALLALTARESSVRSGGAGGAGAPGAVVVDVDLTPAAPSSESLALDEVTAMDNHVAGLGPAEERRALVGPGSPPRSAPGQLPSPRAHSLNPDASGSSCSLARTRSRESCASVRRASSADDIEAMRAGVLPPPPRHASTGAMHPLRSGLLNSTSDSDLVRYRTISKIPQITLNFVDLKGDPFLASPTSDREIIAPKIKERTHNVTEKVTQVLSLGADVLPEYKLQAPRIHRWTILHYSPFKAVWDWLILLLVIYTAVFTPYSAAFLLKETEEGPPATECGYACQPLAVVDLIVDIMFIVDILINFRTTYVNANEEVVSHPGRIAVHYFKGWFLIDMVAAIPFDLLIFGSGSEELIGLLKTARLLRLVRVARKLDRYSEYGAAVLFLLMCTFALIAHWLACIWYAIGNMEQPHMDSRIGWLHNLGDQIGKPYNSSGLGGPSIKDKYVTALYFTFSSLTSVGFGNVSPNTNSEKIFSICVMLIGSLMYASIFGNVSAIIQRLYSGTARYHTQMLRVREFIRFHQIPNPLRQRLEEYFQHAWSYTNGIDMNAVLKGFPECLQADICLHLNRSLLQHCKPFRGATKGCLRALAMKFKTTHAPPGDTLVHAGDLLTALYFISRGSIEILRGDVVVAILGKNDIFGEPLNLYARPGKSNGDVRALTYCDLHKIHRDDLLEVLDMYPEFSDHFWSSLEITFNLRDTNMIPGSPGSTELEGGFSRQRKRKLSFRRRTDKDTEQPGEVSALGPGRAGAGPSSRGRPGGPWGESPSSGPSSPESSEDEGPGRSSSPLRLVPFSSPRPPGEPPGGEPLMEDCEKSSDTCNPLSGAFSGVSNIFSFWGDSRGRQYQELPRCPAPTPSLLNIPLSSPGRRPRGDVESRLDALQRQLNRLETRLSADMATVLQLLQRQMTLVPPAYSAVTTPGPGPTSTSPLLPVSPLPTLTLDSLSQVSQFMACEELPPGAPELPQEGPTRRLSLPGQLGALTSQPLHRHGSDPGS

The assay concerns the target human ether-à-go-go-related gene (hERG) potassium channel (human, UniProt Q12809). In words: primary screen, population patch clamp on CHO cells stably expressing hERG.
Consider `NC(=O)C1CCN(C(=O)c2ccco2)CC1`, for which the “hERG current change (%, negative = inhibition) at 1uM” value is 12.3%.
The result for `Cc1ccccc1-c1nc2ccc(Cl)cc2c(=O)n1O` reads 15.4%; that for `CC(=O)c1cccc(NC(=O)c2ccc(NS(=O)(=O)c3c(C)noc3C)cc2)c1`, 11.8%; that for `O=C(Nc1nnc(C2CC2)s1)C1CCCO1` (stereo not drawn), 12.4%.
The result for `O=S(=O)(NCc1ccco1)c1ccc(S(=O)(=O)N2CCCCC2)cc1` reads -8.78%.
In the case of `COc1ccc(OC)c(NC(=O)COC(=O)Cn2nnc(-c3ccccc3)n2)c1`, the “hERG current change (%, negative = inhibition) at 1uM” value is listed as 10.2%.
The result for `CC1CCCC(C)N1C(=O)COC(=O)c1ccc2c(c1)OCO2` (stereo not drawn) reads 12%; that for `CCC(=O)NC(c1ccc(Cl)cc1Cl)c1ccc2cccnc2c1O` (stereo not drawn), 7.91%; that for `CCOC(=O)N1CCC(n2c(SCC(=O)N3CCC(C)CC3)nc3ccccc3c2=O)CC1`, 0.505%.
`CC1CCCN(C(=O)CSc2cnc3ccccc3n2)C1` (stereo not drawn): the “hERG current change (%, negative = inhibition) at 1uM” value is reported as -9.88%.
Regarding `O=C(c1cnn(-c2ccccc2)c1)c1ccc2ccccc2c1O`, the “hERG current change (%, negative = inhibition) at 1uM” value was 11.3%.
The result for `Cc1cc(C)n(-c2nc3c(c(=O)[nH]c(=O)n3C)n2CC(O)c2ccccc2)n1` (stereo not drawn) reads -0.0387%; that for `CC(=O)Oc1ccccc1-n1c(C)nc(=O)c(-c2ccccc2)c1C`, 9.04%.
For `CC(NC(=O)c1ccccc1F)c1nnc(SCC(=O)NC2CCCCC2)n1C` (stereo not drawn), the “hERG current change (%, negative = inhibition) at 1uM” value is 15.9%.
For the compound `OCCN(CC(O)COc1ccccc1)CC(O)Cn1ccc2ccccc21` (stereo not drawn), the “hERG current change (%, negative = inhibition) at 1uM” value is reported as -3.64%.
For `COc1ccc(/C=N/NC(=O)c2ccc(=O)n(C)c2)cc1OC`, the “hERG current change (%, negative = inhibition) at 1uM” value is on record as 8.72%.
In the case of `CCC(C)(C)NC(=O)c1cc([N+](=O)[O-])ccc1N1CCOCC1` it was -11.8%; in that of `CS(=O)(=O)N1CCC(C(=O)N2CCN(c3ccc(F)cc3)CC2)CC1`, 7.16%.
In the case of `CCOc1ccccc1OCCCC(=O)N(CC)CC(=O)Nc1c(F)cccc1F` it was 6.63%.
On to `Cc1ccc(CN2CCN(CC(=O)NCc3ccc(Cl)cc3)C2=O)cc1`, for which the “hERG current change (%, negative = inhibition) at 1uM” value is -7.7%.
On to `Cc1ccc(C(=O)Cn2nc(C(=O)O)c3ccccc3c2=O)cc1C`, for which the “hERG current change (%, negative = inhibition) at 1uM” value was 12.9%.
Regarding `Cc1ccc(C)c(OCCNc2ccc([N+](=O)[O-])cn2)c1`, the “hERG current change (%, negative = inhibition) at 1uM” value is recorded as 13.1%.
For `CCc1ccc(N(CC)C(=O)c2ccc3c(Cl)c4c(nc3c2)CCC4)cc1`, the “hERG current change (%, negative = inhibition) at 1uM” value is 14.5%.
The result for `OCCCn1c(CCCNc2nc(-c3cccc(Br)c3)cs2)nc2cc(Cl)c(N3CCCCC3)cc21` reads 9.36%; that for `CC1(C)Cc2c(C#N)c(SCC(=O)c3ccccc3)nc(N3CCOCC3)c2CS1`, 13%.
In the case of `CC(=O)C(=Cc1ccc(O)cc1)C(C)=O` it was 15.2%.
As for `CCC(=O)Nc1ccc(/C(C)=N\NC(=O)c2ccc(OC)cc2)cc1`, the “hERG current change (%, negative = inhibition) at 1uM” value is reported as -0.17%.
The result for `CC(=O)N1c2ccc(S(=O)(=O)NCc3ccco3)cc2CC1C` (stereo not drawn) reads 14.1%; that for `O=C(CSCc1ccccc1Cl)NCCSc1ccccn1`, 19.7%.
Take `Cc1cccc(/C=N/n2c(-c3cc(-c4ccccc4)n[nH]3)n[nH]c2=S)c1`: the “hERG current change (%, negative = inhibition) at 1uM” value amounted to 5.86%.
The result for `CCOC(=O)c1cc(C#N)c(N2CCN(C)CC2)nc1-c1ccccc1` reads -12.5%.
For `Cc1cccnc1-n1c(C)nc2ccccc2c1=O`, the “hERG current change (%, negative = inhibition) at 1uM” value stood at 7.55%.
In the case of `CC(C)(C)n1nnnc1CN1CCC(NC(=O)NC2CCCCC2)CC1` it was -9.18%.
With `CC(C)C(NC(=S)NCc1ccccc1)C(=O)O` (stereo not drawn), the “hERG current change (%, negative = inhibition) at 1uM” value stood at 12.7%.
As for `O=C(CCN1C(=O)/C(=C\c2ccccc2)SC1=S)NNC(=O)c1ccncc1`, the “hERG current change (%, negative = inhibition) at 1uM” value came out at 18.1%.
In the case of `CCOC(=O)c1nnsc1Nc1ccc(C)c(C)c1` it was 17.9%.
The result for `CCN(CCN(C)C)C(=O)c1ccc2c(c1NCCO)C(=O)c1ccccc1C2=O` reads 3.03%; that for `CCOC(=O)c1c(C)[nH]c(C(=O)CC(=O)OC)c1C`, 18.7%; that for `COc1ccc(OC)c(N(CC(=O)Nc2ccc3c(c2)OCCO3)S(C)(=O)=O)c1`, 10.9%.
For the compound `COc1ccc(-c2cc3c(nn2)-c2ccccc2C3=O)cc1`, the “hERG current change (%, negative = inhibition) at 1uM” value was 7.89%.
Regarding `Cn1cc(SCC(=O)N2CCN(c3ccccc3)CC2)c2ccccc21`, the “hERG current change (%, negative = inhibition) at 1uM” value is 13.9%.
In the case of `CCS(=O)(=O)C1=NN2C(=N)/C(=C\c3ccc(OS(=O)(=O)c4ccccc4)cc3)C(=O)N=C2S1` it was 16.5%.
As to `CC(C)c1nnc(NC(=O)c2cccc(-n3cnnn3)c2)s1`, the “hERG current change (%, negative = inhibition) at 1uM” value is given as 14.1%.
The result for `O=C(O)c1cc(-c2ccc3c(c2)OCCO3)n[nH]1` reads 9.49%; that for `c1ccc2[nH]c(SCc3ccc(-c4nnco4)cc3)nc2c1`, 12.3%.
In the case of `NNC(=O)C(Cc1ccc(O)cc1)N1Cc2ccccc2C1=O` (stereo not drawn) it was 7.99%; in that of `COc1ccccc1CCC(=O)OCc1csc(CC(=O)Nc2ccccc2C)n1`, -3.76%; in that of `CN1CCN(/N=C/c2c(O)n(CCC3=CCCCC3)c(=S)[nH]c2=O)CC1`, -4.43%.
Consider `Nc1cc([N+](=O)[O-])ccc1O`, for which the “hERG current change (%, negative = inhibition) at 1uM” value came out at 3.14%.
The result for `Cc1nn(-c2ccc(Cl)c(Cl)c2)c(C)c1C(=O)O` reads 13.8%; that for `CSc1nc2n(n1)C(C)C1=C(CCCC1=O)N2` (stereo not drawn), 21.1%.
`O=C(O)c1ccccc1NS(=O)(=O)c1cccc2cccnc12`: the “hERG current change (%, negative = inhibition) at 1uM” value is recorded as -11.3%.
The result for `Cc1cccc(N2C(=O)c3cccc(Oc4ccc(Cl)cc4)c3C2=O)c1` reads 11.6%; that for `CN(C)S(=O)(=O)c1cccc(NC(=O)c2ccc3nccnc3c2)c1`, 2.06%.
In the case of `O=C(CN(CC1CCCO1)C(=O)CNS(=O)(=O)c1ccc(Cl)cc1)NC1CCCCC1` (stereo not drawn) it was 10.4%; in that of `O=C(c1cnn2ccccc12)N(Cc1ccco1)C1CCCC1`, 16.6%; in that of `COc1ccc(Cl)cc1C(=O)C1CCCN(Cc2cnc(C)s2)C1` (stereo not drawn), -12.3%.
As to `O=C(N=Nc1c(O)[nH]c(=O)[nH]c1=O)C1COc2cc3ccccc3cc2O1` (stereo not drawn), the “hERG current change (%, negative = inhibition) at 1uM” value turned out to be 13.6%.
As for `Cc1ccc(NC(=O)CSc2nnc([C@H](C)NC(=O)OC(C)(C)C)o2)c(C)c1`, the “hERG current change (%, negative = inhibition) at 1uM” value was 4.89%.
The result for `COc1ccc(CSc2n[nH]c(C)n2)cc1[N+](=O)[O-]` reads 19.3%.
As for `Cc1cc(C)nc(NC(=O)/C=C/c2ccccc2Cl)n1`, the “hERG current change (%, negative = inhibition) at 1uM” value stood at 4.95%.
The result for `CC1=Cc2ccccc2C(C#N)N1C(=O)c1ccccc1` (stereo not drawn) reads 2.9%.
In the case of `COc1ccccc1CNS(=O)(=O)c1ccc(-n2cnnn2)c(C)c1` it was 11.6%.
For `Nc1c(Cl)cc(-c2csc(NCCc3nc4cc(Cl)c(Cl)cc4n3CCCO)n2)cc1Cl`, the “hERG current change (%, negative = inhibition) at 1uM” value is 18%.
As to `O=C(NC1CC1)C1CCN(c2ccc(S(=O)(=O)N3CCOCC3)cc2)CC1`, the “hERG current change (%, negative = inhibition) at 1uM” value is listed as 0.269%.
For `Cc1csc(SCC(=O)N(C)CC(=O)Nc2ccccc2Cl)n1`, the “hERG current change (%, negative = inhibition) at 1uM” value was 5.27%.
As to `CC1NC(=S)N(Cc2ccccc2)C1=O` (stereo not drawn), the “hERG current change (%, negative = inhibition) at 1uM” value is reported as 7.95%.
Take `Cn1cc(C=C2C(=O)CC(C)(C)CC2=O)c2ccccc21`: the “hERG current change (%, negative = inhibition) at 1uM” value was 12.2%.
In the case of `Cc1ccccc1Cc1c(C)nc2nc(SCC(=O)NCCCN3CCCC3)nn2c1C`, the “hERG current change (%, negative = inhibition) at 1uM” value amounted to 11.6%.
The result for `Cc1cc(C(=O)NC2=NCCS2)c2ccccc2n1` reads 4.91%; that for `CC12CCCC[C@@H]1CCC1C2CCC2(C)C1CC[C@@]2(O)CNCCO` (stereo partly drawn), 13.5%; that for `CCCC/C(C)=N/NC(=O)CN(c1ccc(Br)cc1)S(=O)(=O)c1ccccc1`, 2.04%.
For the compound `COc1cccc(CNC(=O)C(NS(=O)(=O)c2ccc3c(c2)CCN3C(C)=O)C(C)C)c1` (stereo not drawn), the “hERG current change (%, negative = inhibition) at 1uM” value is given as 16.2%.
In the case of `CN(C)S(=O)(=O)c1ccc(N2CCOCC2)nc1` it was 0.573%; in that of `CN(C)CCN1C(=O)C(O)=C(C(=O)c2cc3ccccc3o2)C1c1ccc(N(C)C)cc1` (stereo not drawn), 6.1%; in that of `O=C(N/N=C/c1ccccc1OC(F)F)C1=COCCO1`, 1.54%.
The result for `Cc1ccc(N2C(=O)CC(NNc3nc4ccccc4s3)C2=O)cc1` (stereo not drawn) reads -0.62%.
Regarding `Cc1cccc2cc(C#N)c(SCC(=O)N3CC(=O)Nc4ccccc43)nc12`, the “hERG current change (%, negative = inhibition) at 1uM” value came to 8.82%.
In the case of `CCCN(CC(=O)Nc1ccccc1C)C(=O)c1ccc(-c2ccccc2)cc1`, the “hERG current change (%, negative = inhibition) at 1uM” value is given as 11.3%.
The result for `CC(=O)c1cccc(NC(=O)c2c(C)nn(-c3ccccc3)c2Cl)c1` reads 5.91%; that for `CCOC(=O)C1(Cc2ccc(Cl)cc2)CCN(C(C)CCn2cccn2)CC1` (stereo not drawn), -87.1%; that for `CC(C)n1c(SCc2cc(=O)[nH]c3ccccc23)nc2c1c(=O)n(C)c(=O)n2C`, 9.91%.
In the case of `N#Cc1ccc(-n2c(-c3ccccc3)nnc2-c2ccccc2)cc1C#N` it was 3.43%; in that of `COC(=O)CSC1=C(C#N)C(c2ccc3c(c2)OCO3)C2=C(CCCC2=O)N1` (stereo not drawn), 3.85%.
In the case of `Cl.Nn1cnnc1N/N=C/c1ccc(Cl)c([N+](=O)[O-])c1` it was 4.91%; in that of `CCC(C(=O)NCc1cccnc1)c1ccccc1` (stereo not drawn), 0.29%.
Turning to `COCCN(CC(=O)NCc1ccc(F)cc1)C(=O)CCC(=O)Nc1nccs1`, the “hERG current change (%, negative = inhibition) at 1uM” value is 8.01%.
The result for `Cc1ccc(C)c(OCC(=O)N2CCCN(C)CC2)c1` reads 20.1%; that for `COc1ccc(-c2nc(CS(=O)CC(=O)NC3CCCCC3)c(C)o2)cc1OC` (stereo not drawn), -10.7%; that for `COCCn1c(=NC(=O)c2ccco2)sc2cc(C(=O)OC)ccc21`, 5.99%.
